Experimental data: PubChem BioAssay AID1508624 (National Center for Advancing Translational Sciences (NCATS), 2021)
In all, about 48,000 compounds went through this assay and about 120 (0.25%) were called active. About 4% were inconclusive and are not listed. The call rests on the fitted dose curve; in most records, active means well fitted activation curve with a large enough effect; inconclusive means small, poorly fitted or top-dose-only effect, or another doubt; inactive means no such curve, though single readings can be large or run the other way. This is a selection; strong and weak results do not stand in their true shares. The source gives no active or inactive call for entries shown without one.

Experiment: Primary qHTS for Identification of Small Molecule Activators of Huntingtin-Antisense Promoter Activity; further: nearly all actives have a fitted effect of over 55% in size
Settings: HEK293 HTT-AS promoter firefly luciferase reporter, 24 h; activity change, positive = activation: at 57.5 µM (top of the series), percent change from vehicle, -100% = no light
In short: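 HEK293 luciferase promoter-reporter cells (2,500/well) plated 24 h, then compounds added at up to 57.5 uM final for 24 h at 37 °C. Firefly luminescence by Dual-Glo, normalized to vehicle (0%) and zero RLU (-100%).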

Structure (SMILES)	activity change, positive = activation
Cc1ccc(-n2ncc3c(NC4CCCC4)ncnc32)cc1	inactive: -51.6%
COc1ccc(C)cc1NC(=O)c1c(C(=O)Nc2cccc(C)c2C)sc2nc(C)cc(=O)n12	-3.77%
COc1cc2oc(=O)c(CC(=O)N3CCCCC3)c(C)c2cc1Cl	10.2%
O=C(c1cccc(Br)c1)N1CCN(Cc2cc(=O)n3nc(-c4ccccc4)sc3n2)CC1	9.42%
Cc1cc(S(=O)(=O)Nc2ccc(-c3ccc(N4CCCCC4)nn3)cc2)c(C)cc1Cl	-5.66%
COc1ccc(C2C(=O)N(C3CCC(C)CC3)CC(=O)N2Cc2ccccc2Cl)cc1OC (stereo not drawn)	-14.5%
CC1CCN(c2nn3c(=O)c(C(=O)NCc4ccc(Cl)cc4)cnc3s2)CC1	-3.32%
COc1ccc(CNC(=O)CCc2c(C)nn(-c3ccc(N4CCCCC4)nn3)c2C)c(OC)c1	11.5%
Cc1ccc(-n2ncc(C(=O)NCCCN3CCN(c4cccc(Cl)c4)CC3)c2-n2cccc2)cc1	-13.2%
CCCCCCC[N+](CC)(CC)CCCCc1ccc(Cl)cc1	inactive: -42.4%
COc1cc(C2C(=O)N(C3CCCCCC3)CC(=O)N2CCC2=CCCCC2)ccc1OC(C)C (stereo not drawn)	3.16%
Cc1c(CCC(=O)NCCc2ccccc2)c(=O)oc2cc(O)ccc12	-21%
COc1ccc(N2CCN(S(=O)(=O)c3ccc4oc(=O)c5ncn(C)c5c4c3)CC2)cc1	5.71%
Cc1nn(Cc2ccc(F)cc2)c(C)c1NC(=O)c1cc(CC(C)C)on1	-40.5%
COCCOC(=O)c1c(C)n(S(=O)(=O)c2ccc(C)cc2)c2ccc(NS(=O)(=O)c3ccc(C)cc3)cc12	-18.1%
CCOc1ccc(CC(=O)NCCc2csc(-c3ccc(C)cc3)n2)cc1	inactive: -29.7%
O=S(=O)(Nc1cccc(-c2ccc(N3CCCC3)nn2)c1)c1ccccc1C(F)(F)F	-1.4%
COc1cccc(NC(=O)CCN2CCN(CCO)CC2)c1	-2.9%
Cc1cc(-c2ccc(S(=O)(=O)Nc3cccc(Cl)c3C)cc2)on1	-34.9%
CC(=O)c1cc(-c2ccccc2)n(CC(=O)NCc2ccccc2C)c1C	-11.7%
Cc1oc2c(cc(NS(=O)(=O)c3ccc(F)cc3)c3ccccc32)c1C(=O)OCc1ccccc1	3.55%
Cc1ccc(OCc2nnc(-c3ccccc3)o2)cc1	44.5%
CC(=O)Nc1ccc(Nc2nc3ccc(C)cc3n3nnnc23)cc1	15.1%
Cc1ccc(C)c(OCCCn2c(-c3ccc(Cl)cc3)nc3ccccc3c2=O)c1	0.84%

Structure (SMILES)	activity change, positive = activation
CCC1CCc2c(sc(NC(=O)C3c4ccccc4Oc4ccccc43)c2C#N)C1 (stereo not drawn)	-22.8%
CCC(C)NC(=O)c1ccccc1NC(=O)C1CCN(S(=O)(=O)Cc2ccccc2)CC1 (stereo not drawn)	-4.3%
CC(=O)Nc1ccc(NC(=O)Nc2sc3nc4n(c(=O)c3c2C)CCC(C)CC4)cc1 (stereo not drawn)	-9.98%
COc1ccc(OC)c(NC(=O)c2ccc(-c3nc(COc4ccccc4)c(C)o3)cc2)c1	-15.9%
Cc1ccc(C(C)C)c(OCCSc2nc(-c3cccs3)nc3cc(=O)[nH]n23)c1	-1.58%
COc1ccc(N2CCN(C(=O)c3cc4c(=O)n(Cc5cccs5)ccc4nc3C)CC2)cc1	-15.6%
CCOc1ccc(CNCc2c(C(=O)O)c(C)n(Cc3c(F)cccc3Cl)c2C)cc1OC	inactive: -15.8%
CC(C)c1ccc(S(=O)(=O)N2CCC(N3CCN(Cc4ccccc4)C(=O)C3=O)CC2)cc1	-2.81%
COc1ccc(C2=C(Nc3ccc(C)cc3C)c3ccccc3C2=O)cc1	-21.4%
CCCc1cc(=O)[nH]c(Nc2cc(C)cc(C)c2)n1	-24.5%
COc1ccc(NC(=O)CCCn2c(=O)c3cccn3c3cccnc32)cc1Cl	inactive: -15.9%
Cc1ccc(NC(=O)c2cc3ccccn3n2)cc1F	49.7%
COc1ccc(NC2=C(c3ccccc3)C(=O)c3ccccc32)cc1Cl	-24.3%
COc1ccc(CNC(=O)c2cc3ccccn3n2)cc1OC	-4.55%
Cc1ccc(NC(=O)/C=C\C(=O)N(c2ccc(C(C)C)cc2)C(C(=O)NCc2ccco2)c2ccc(F)cc2)cc1 (stereo not drawn)	-45.2%
CC(=O)c1ccc(S(=O)(=O)Nc2ccc(-c3ccc(N4CCCCC4)nn3)cc2)cc1	30.4%
CCOc1ccc(S(=O)(=O)Nc2cccc(-c3ccc(N4CCCC4)nn3)c2)cc1	2.41%
CCC1CCCCN1Cc1c(O)ccc2c(=O)c(Oc3ccccc3Cl)c(C(F)(F)F)oc12 (stereo not drawn)	-25.4%
Cc1oc2ncn(CC(C)C)c(=O)c2c1C(=O)NCCc1ccc(Cl)cc1	inactive: -14.6%
Cc1ccc(NC(=O)CSc2nnc(COc3ccc(Cl)cc3)o2)cc1	-8.1%
CCCCN1C(=O)CN(C2CCCCCC2)C(=O)C1c1ccc(OCC)c(OC)c1 (stereo not drawn)	-9.83%
Cc1ccc(-c2nnc(Nc3cccc(Br)c3)c3ccccc23)cc1S(=O)(=O)N1CCCCC1	-9.43%
CCOc1ccc(C2C(=O)N(C3CCCCC3)CC(=O)N2Cc2ccccc2OC)cc1OC (stereo not drawn)	-18.4%
O=C(Nc1ccc(Oc2ccccc2)cc1)c1ccc(F)c(S(=O)(=O)N2CCN(c3cccc(Cl)c3)CC2)c1	inactive: -43.8%
